The antibiotic and cytotoxicity screens of Wong et al. (2023)
The other results are listed elsewhere or left out.

tested on: S. aureus RN4220; assay: growth inhibition call (relative growth <= 0.2); conditions: 50 µM

Growth inhibition call, inactive:
C[C@H]1CN([C@@H](C)CO)C(=O)Cc2cc(NS(=O)(=O)c3ccccc3)ccc2O[C@@H]1CN(C)S(=O)(=O)c1cn(C)cn1, O=c1c(O)cccc2cc(O)c(O)c(O)c12, COc1ccc(COC[C@]23NC(=O)N(C(=O)c4ccccc4)[C@H](c4ccccc4O2)[C@H]3CO[Si](C)(C)C(C)(C)C)cc1, COc1ccc(S(=O)(=O)N[C@H]2CC[C@@H](CC(=O)N3CCC(Cc4ccccc4)CC3)O[C@@H]2CO)cc1, CCc1ccc(NC(=N)N=C(N)N)cc1, O=C(CCCCCCC(=O)Nc1ccc([C@H]2C[C@H](c3ccccc3)O[C@H](c3cccc(Oc4ccccc4)c3)O2)cc1)NO, O=C(C[C@H]1C=C[C@@H](NS(=O)(=O)c2ccc(F)cc2)[C@@H](CO)O1)NCc1ccc(Cl)c(Cl)c1, C[C@@H]1CCCCO[C@@H](CN(C)S(=O)(=O)c2ccccc2)[C@@H](C)CN([C@@H](C)CO)C(=O)c2cc(NC(=O)Nc3ccc4c(c3)OCO4)ccc2O1, C[C@@H]1CCCCO[C@@H](CN(C)S(C)(=O)=O)[C@H](C)CN([C@@H](C)CO)C(=O)c2cc(N(C)C)ccc2O1, COc1ccc(NC(=O)Nc2ccc3c(c2)C(=O)N([C@@H](C)CO)C[C@@H](C)[C@@H](CN(C)S(=O)(=O)c2ccc(F)cc2)OCCCC[C@H](C)O3)cc1, COc1ccc(S(=O)(=O)Nc2ccc3c(c2)C(=O)N([C@@H](C)CO)C[C@@H](C)[C@H](CN(C)S(=O)(=O)c2ccccc2)O3)cc1, C[C@H](CO)N1C[C@H](C)[C@H](CN(C)Cc2ccc(C(=O)Nc3ccccc3N)cc2)Oc2ccc(NC(=O)Nc3ccc4c(c3)OCO4)cc2CC1=O, COc1ccc(NC(=O)Nc2ccc3c(c2)C(=O)N([C@@H](C)CO)C[C@H](C)[C@@H](CN(C)C(=O)Nc2ccccc2)OCCCC[C@H](C)O3)cc1, C[C@H](CO)N1C[C@H](C)[C@@H](CN(C)Cc2ccc(-c3ccccc3)cc2)Oc2ccc(NS(=O)(=O)c3ccccc3)cc2CC1=O, CC(C)NC(=O)Nc1ccc2c(c1)CC(=O)N([C@@H](C)CO)C[C@H](C)[C@@H](CN(C)S(=O)(=O)c1ccc(F)cc1)O2, C[C@@H]1CN([C@@H](C)CO)C(=O)Cc2cc(NC(=O)Cc3ccccc3)ccc2O[C@@H]1CN(C)Cc1ccc(C(F)(F)F)cc1, C[C@@H]1COCCS(=O)(=O)N1C, c1cnc2nccn2c1, CS(=O)(=O)OCCCCOS(C)(=O)=O, CCCN(C)C[C@H]1OCCCC[C@H](C)Oc2ccc(NC(=O)Nc3cccc4ccccc34)cc2C(=O)N([C@@H](C)CO)C[C@H]1C, Cc1noc(C)c1S(=O)(=O)Nc1ccc2c(c1)C(=O)N([C@@H](C)CO)C[C@H](C)[C@@H](CN(C)C(=O)Nc1ccccc1)O2, C[C@H](CO)N1C[C@H](C)[C@@H](CN(C)S(=O)(=O)c2cccs2)Oc2ccc(NS(=O)(=O)c3cn(C)cn3)cc2CC1=O, Cc1ccc(S(=O)(=O)N(C)C[C@H]2Oc3c(NC(=O)c4ccncc4)cccc3C(=O)N([C@H](C)CO)C[C@@H]2C)cc1, C[C@H](CO)N1C[C@H](C)[C@H](CN(C)C(=O)C2CCCCC2)OCCCC[C@H](C)Oc2ccc(NC(=O)Nc3ccc(C(F)(F)F)cc3)cc2C1=O, N[C@H](CO)COCc1ccccc1, Cc1ccc(S(=O)(=O)N(C)C[C@H]2OCCCC[C@@H](C)Oc3ccc(NS(=O)(=O)c4ccc(F)cc4)cc3C(=O)N([C@H](C)CO)C[C@H]2C)cc1, CCNC(=O)N1CCN(CCO)CC1, C[C@@H]1CCCCO[C@H](CN(C)Cc2ccc3c(c2)OCO3)[C@H](C)CN([C@H](C)CO)C(=O)c2cc(NS(=O)(=O)c3ccccc3)ccc2O1, Cc1noc(C)c1NC(=O)Nc1ccc2c(c1)CC(=O)N([C@@H](C)CO)C[C@H](C)[C@@H](CN(C)S(C)(=O)=O)O2, C[C@@H]1CN([C@@H](C)CO)C(=O)Cc2cc(NC(=O)NC3CCCCC3)ccc2O[C@H]1CN(C)Cc1ccc(C(F)(F)F)cc1, C[C@@H]1CCCCO[C@H](CN(C)Cc2ccc(C(F)(F)F)cc2)[C@H](C)CN([C@H](C)CO)C(=O)c2cc(NC(=O)CCC(F)(F)F)ccc2O1
